Measured values published in the supplement of paper PMC4604168 (melanoma cell lines).
This is one part of the list. Single values are uncertain, as repeats are few or missing.

Experiments:
Test in all cases: cell count relative to DMSO control; melanoma cells; higher = more viable cells
Conditions in all cases: library dose: standard library concentration; 72 h
G361 = tested on: G361
IPC-298 = tested on: IPC-298
IST-MEL1 = tested on: IST-MEL1
LB2518-MEL = tested on: LB2518-MEL
LOXIMVI = tested on: LOXIMVI
MEL-HO = tested on: MEL-HO
MZ2-MEL = tested on: MZ2-MEL
MeWo = tested on: MeWo
RPMI7951 = tested on: RPMI7951
RVH-421 = tested on: RVH-421
SkMel28 = tested on: SkMel28
SkMel2 = tested on: SkMel2
SkMel30 = tested on: SkMel30
SkMel5 = tested on: SkMel5
UACC257 = tested on: UACC257
UACC62 = tested on: UACC62
WM115 = tested on: WM115
WM1716 = tested on: WM1716
WM1745 = tested on: WM1745
WM3526 = tested on: WM3526
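Also: cells treated in 1,536-well plates, then fixed and DAPI-stained, with nuclei counted from automated high-throughput microscope images.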

SMILES | cell count (G361) [%] | cell count (IPC-298) [%] | cell count (IST-MEL1) [%] | cell count (LB2518-MEL) [%] | cell count (LOXIMVI) [%] | cell count (MEL-HO) [%] | cell count (MZ2-MEL) [%] | cell count (MeWo) [%] | cell count (RPMI7951) [%] | cell count (RVH-421) [%] | cell count (SkMel28) [%] | cell count (SkMel2) [%] | cell count (SkMel30) [%] | cell count (SkMel5) [%] | cell count (UACC257) [%] | cell count (UACC62) [%] | cell count (WM115) [%] | cell count (WM1716) [%] | cell count (WM1745) [%] | cell count (WM3526) [%]
Nc1nc(F)nc2c1ncn2[C@@H]1O[C@H](CO)[C@@H](O)[C@@H]1O [fludarabine] + Clc1ccc(Nc2nnc(Cc3ccncc3)c3ccccc23)cc1 [vatalanib] (first compound 1 µM, partner dose 10 µM) | 72.9 | 54 | 60.9 | 72.5 | 55 | 60.3 | 71.7 | 68.8 | 55 | 82.5 | 2.95 | 1.53 | 22.1 | 31.7 | 47.8 | 70.6 | 67.1 | 84.5 | 63.4 | 22.8
Nc1ccn([C@@H]2O[C@H](CO)[C@@H](O)C2(F)F)c(=O)n1 [gemcitabine] + Nc1nc(F)nc2c1ncn2[C@@H]1O[C@H](CO)[C@@H](O)[C@@H]1O [fludarabine] (first compound 0.002 µM, partner dose 1 µM) | 41.5 | 37.1 | 32.2 | 69 | 59.3 | 49 | 58.3 | 48.2 | 26.5 | 47.5 | 4.22 | 1.02 | 16 | 17.9 | 36.2 | 69.8 | 77.6 | 74 | 48.6 | 23.1
Nc1nc(F)nc2c1ncn2[C@@H]1O[C@H](CO)[C@@H](O)[C@@H]1O [fludarabine] + COc1ccc(COc2ccc(Cc3cnc(N)nc3N)cc2OC)cc1 [GW2580] (first compound 1 µM, partner dose 5 µM) | 60.6 | 59.7 | 93.1 | 79.1 | 66.2 | 74.3 | 79 | 74.4 | 62 | 105 | 2.09 | 2.95 | 25.1 | 24.7 | 46.8 | 91.5 | 75 | 91.1 | – | 27.1
CO[C@H]1C[C@@H]2CC[C@@H](C)[C@@](O)(O2)C(=O)C(=O)N2CCCC[C@H]2C(=O)O[C@H]([C@H](C)C[C@@H]2CC[C@@H](OCCO)[C@H](OC)C2)CC(=O)[C@H](C)/C=C(\C)[C@@H](O)[C@@H](OC)C(=O)[C@H](C)C[C@H](C)/C=C/C=C/C=C/1C [everolimus] + O=C(O)C(=O)Nc1sc2c(c1C(=O)O)CCNC2 [TCS401] (first compound 0.1 µM, partner dose 8.33333 µM) | 77.1 | 83.1 | 88.3 | 71.2 | 87.7 | 81.4 | 84.3 | 69.6 | 78.9 | 81.1 | 35.4 | 60.7 | 70.4 | 44.5 | 82.1 | 75.9 | 74.4 | 72.2 | – | 79.7
Nc1nc(F)nc2c1ncn2[C@@H]1O[C@H](CO)[C@@H](O)[C@@H]1O [fludarabine] + Cc1cc(N2CCOCC2)cc2[nH]c(-c3c(NC[C@@H](O)c4cccc(Cl)c4)cc[nH]c3=O)nc12 [BMS536924] (first compound 1 µM, partner dose 1 µM) | 73 | 83.5 | 70.3 | 80.8 | 105 | 77.5 | 115 | 81 | 93.2 | 114 | 0.892 | 1.98 | 13.9 | 34.7 | 39.9 | 70.5 | 89.3 | 93.9 | 55.3 | 20.7
Nc1ncn([C@H]2C[C@H](O)[C@@H](CO)O2)c(=O)n1 [decitabine] + COc1ccc2c(c1)CCC1C2CCC2(C)C(NCCCCCCN3C(=O)C=CC3=O)CCC12 [U73122] (first compound 0.5 µM, partner dose 2 µM) | 75.7 | 64.4 | 72.6 | 88.2 | 60.4 | 82.5 | 86.5 | 50.1 | 31.1 | 69.7 | 85.5 | 86.2 | 87.3 | 56.9 | 100 | 54.8 | 65.8 | 67.4 | – | 95.9
CO[C@H]1C[C@@H]2CC[C@@H](C)[C@@](O)(O2)C(=O)C(=O)N2CCCC[C@H]2C(=O)O[C@H]([C@H](C)C[C@@H]2CC[C@@H](OCCO)[C@H](OC)C2)CC(=O)[C@H](C)/C=C(\C)[C@@H](O)[C@@H](OC)C(=O)[C@H](C)C[C@H](C)/C=C/C=C/C=C/1C [everolimus] + O=S(=O)(c1ccccc1)N(CC(F)(F)F)c1ccc(C(O)(C(F)(F)F)C(F)(F)F)cc1 [T0901317] (first compound 0.1 µM, partner dose 7 µM) | 49.7 | 62.4 | 74.9 | 67.8 | 85.2 | 64.4 | 76.4 | 69.1 | 94.7 | 71.1 | 42.5 | 56.1 | 72.1 | 45.6 | 82.1 | 66.1 | 74.9 | 73.6 | – | 60.7
CO[C@H]1C[C@@H]2CC[C@@H](C)[C@@](O)(O2)C(=O)C(=O)N2CCCC[C@H]2C(=O)O[C@H]([C@H](C)C[C@@H]2CC[C@@H](OCCO)[C@H](OC)C2)CC(=O)[C@H](C)/C=C(\C)[C@@H](O)[C@@H](OC)C(=O)[C@H](C)C[C@H](C)/C=C/C=C/C=C/1C [everolimus] + COc1cc(N2CCC(N3CCN(C)CC3)CC2)ccc1Nc1ncc(Cl)c(Nc2ccccc2S(=O)(=O)C(C)C)n1 [NVP-TAE684] (first compound 0.1 µM, partner dose 0.4 µM) | 51.1 | 53.2 | 86.3 | 61.5 | 89.6 | 57.7 | 70.9 | 43.7 | 68.7 | 89.9 | 34.1 | 45.7 | 71.9 | 44.3 | 78.5 | 66.7 | 60.6 | 67.7 | – | 48.1
